# According to the supplement of paper PMC8728848:
# The list shows a part of the results.
# B1: PX14343A-bvu-539-29-539 (Bacteroides vulgatus) (protein)
# chain: DSLTESSSNTFWQTPDDALMALASCYDALQSNQLYNSDQYSLGPLYMDCISDNGGHFNWSGWMEGYDMAMGIHTPSSSIIGSYWKDCYEVISRCNVLIANIDRVDMDASQKAIYQAEAKTIRALMYINLTMTYQDVPFLTAPLTIDEAECEKTDRAAIVAHVMTDLQDAAEVLPQNASSRGHITKGAALSLLGRVALYNEKWDDAIAAYKQVQGLGYSLDPSYAKLFTQSGETSPEIIFAVRYEGPGMSEGAAFNAHWNTPLEAMNGTIDLADAYYCKDGKPTTDTKIAELNGGGGLDVSKPNPAHFENRDPRLYSTLFVPGMLWNGKGGIDTSASNPYANVYGGAAASLSTVYVYKYFDPTDTSNSWDNGQDFYVVRYAEVLLSLAEAMVQKGGYVYSDVTALVNEVRQRADVNMPTVEEVEGTSLSKDELLEVIKHERRVELAFEGLRLFDLYRWKELDKAVANIENERTMYGLAYEARKFNGERDYVWPLPTAELDTNKKLVQHDLWK
# How the values were obtained:
# Test in all cases: glycan array binding signal (z-score within array); higher = stronger binding
# Conditions in all cases: glycan notation: IUPAC condensed, linker removed
# [1] = target: Gal(b1-3)GlcNAc(b1-2)Man(a1-3)[Gal(b1-3)GlcNAc(b1-2)Man(a1-6)]Man(b1-4)GlcNAc(b1-4)[Fuc(a1-6)]GlcNAc
# Summary of the method: (§1)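 Glycan array binding is given as a within-array Z-score, which can be read as non-binding when negative. The arrays, 3228 of them, came from the Consortium for Functional Glycomics database and were retained only where the protein sequence was available. Z-scores were averaged across arrays of the same protein sequence at different concentrations or buffers and across linkers.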
# [2] = target: Gal(b1-3)GlcNAc(b1-2)Man(a1-3)[GlcNAc(b1-4)][Gal(b1-3)GlcNAc(b1-2)Man(a1-6)]Man(b1-4)GlcNAc(b1-4)GlcNAc
# Summary of the method: as §1
# [3] = target: Gal(b1-3)GlcNAc(b1-2)[Gal(b1-3)GlcNAc(b1-6)]Man(a1-6)[Gal(b1-3)GlcNAc(b1-2)Man(a1-3)]Man(b1-4)GlcNAc(b1-4)GlcNAc
# Summary of the method: as §1
# [4] = target: Gal(b1-3)GlcNAc(b1-3)Gal(b1-3)GlcNAc
# Summary of the method: as §1
# [5] = target: Gal(b1-3)GlcNAc(b1-3)Gal(b1-4)Glc
# Summary of the method: as §1
# [6] = target: Gal(b1-3)GlcNAc(b1-3)Gal(b1-4)GlcNAc
# Summary of the method: as §1
# [7] = target: Gal(b1-3)GlcNAc(b1-3)Gal(b1-4)GlcNAc(b1-2)Man(a1-3)[Gal(b1-3)GlcNAc(b1-3)Gal(b1-4)GlcNAc(b1-2)Man(a1-6)]Man(b1-4)GlcNAc(b1-4)GlcNAc
# Summary of the method: as §1
# [8] = target: Gal(b1-3)GlcNAc(b1-3)Gal(b1-4)GlcNAc(b1-2)[Gal(b1-3)GlcNAc(b1-3)Gal(b1-4)GlcNAc(b1-6)]Man(a1-6)[Gal(b1-3)GlcNAc(b1-3)Gal(b1-4)GlcNAc(b1-2)Man(a1-3)]Man(b1-4)GlcNAc(b1-4)[Fuc(a1-6)]GlcNAc
# Summary of the method: as §1
# [9] = target: Gal(b1-3)GlcNAc(b1-3)Gal(b1-4)GlcNAc(b1-3)Gal(b1-4)GlcNAc(b1-2)[Gal(b1-3)GlcNAc(b1-3)Gal(b1-4)GlcNAc(b1-3)Gal(b1-4)GlcNAc(b1-6)]Man(a1-6)[Gal(b1-3)GlcNAc(b1-3)Gal(b1-4)GlcNAc(b1-3)Gal(b1-4)GlcNAc(b1-2)Man(a1-3)]Man(b1-4)GlcNAc(b1-4)[Fuc(a1-6)]GlcNAc
# Summary of the method: as §1
# [10] = target: Gal(b1-3)GlcNAc(b1-3)Gal(b1-4)GlcNAc(b1-6)[Gal(b1-3)GlcNAc(b1-3)]Gal(b1-4)Glc
# Summary of the method: as §1
# [11] = target: Gal(b1-3)GlcNAc(b1-3)Gal(b1-4)[Fuc(a1-3)]GlcNAc
# Summary of the method: as §1
# [12] = target: Gal(b1-3)GlcNAc(b1-3)Gal(b1-4)[Fuc(a1-3)]GlcNAc(b1-6)[Gal(b1-3)GlcNAc(b1-3)]Gal(b1-4)Glc
# Summary of the method: as §1
# [13] = target: Gal(b1-3)GlcNAc(b1-3)GalNAc
# Summary of the method: as §1
# [14] = target: Gal(b1-3)GlcNAc(b1-6)Gal(b1-4)GlcNAc
# Summary of the method: as §1
# [15] = target: Gal(b1-3)GlcNAc(b1-6)GalNAc
# Summary of the method: as §1
# [16] = target: Gal(b1-3)GlcNAc(b1-6)[Gal(b1-3)]GalNAc
# Summary of the method: as §1
# Gal(b1-3)GlcNAc6S = target: Gal(b1-3)GlcNAc6S
# Summary of the method: as §1
# [17] = target: Gal(b1-3)[Fuc(a1-4)]GlcNAc
# Summary of the method: as §1
# [18] = target: Gal(b1-3)[Fuc(a1-4)]GlcNAc(b1-2)Man
# Summary of the method: as §1
# [19] = target: Gal(b1-3)[Fuc(a1-4)]GlcNAc(b1-2)Man(a1-3)[Gal(b1-3)[Fuc(a1-4)]GlcNAc(b1-2)Man(a1-6)]Man(b1-4)GlcNAc(b1-4)[Fuc(a1-6)]GlcNAc
# Summary of the method: as §1
# [20] = target: Gal(b1-3)[Fuc(a1-4)]GlcNAc(b1-3)Gal(b1-3)[Fuc(a1-4)]GlcNAc
# Summary of the method: as §1
# [21] = target: Gal(b1-3)[Fuc(a1-4)]GlcNAc(b1-3)Gal(b1-4)[Fuc(a1-3)]GlcNAc
# Summary of the method: as §1
# [22] = target: Gal(b1-3)[Fuc(a1-4)]GlcNAc(b1-6)GalNAc
# Summary of the method: as §1
# [23] = target: Gal(b1-3)[GlcNAc(b1-6)]GalNAc
# Summary of the method: as §1
# [24] = target: Gal(b1-3)[Neu5Ac(a2-6)]GalNAc
# Summary of the method: as §1
# [25] = target: Gal(b1-3)[Neu5Ac(a2-6)]GlcNAc(b1-4)Gal(b1-4)Glc
# Summary of the method: as §1
# [26] = target: Gal(b1-3)[Neu5Ac(b2-6)]GalNAc
# Summary of the method: as §1
# Gal(b1-4)Gal = target: Gal(b1-4)Gal
# Summary of the method: as §1
# [27] = target: Gal(b1-4)GalNAc(a1-3)[Fuc(a1-2)]Gal(b1-4)GlcNAc
# Summary of the method: as §1
# [28] = target: Gal(b1-4)GalNAc(b1-3)[Fuc(a1-2)]Gal(b1-4)GlcNAc
# Summary of the method: as §1
# Gal(b1-4)Glc = target: Gal(b1-4)Glc
# Summary of the method: as §1
# Gal(b1-4)Glc6S = target: Gal(b1-4)Glc6S
# Summary of the method: as §1
# Gal(b1-4)GlcNAc = target: Gal(b1-4)GlcNAc
# Summary of the method: as §1
# [29] = target: Gal(b1-4)GlcNAc(a1-6)Gal(b1-4)GlcNAc
# Summary of the method: as §1
# Gal(b1-4)GlcNAc(b1-2)Man = target: Gal(b1-4)GlcNAc(b1-2)Man
# Summary of the method: as §1
# [30] = target: Gal(b1-4)GlcNAc(b1-2)Man(a1-3)Man(b1-4)GlcNAc(b1-4)GlcNAc
# Summary of the method: as §1
# [31] = target: Gal(b1-4)GlcNAc(b1-2)Man(a1-3)[Gal(b1-4)GlcNAc(b1-2)Man(a1-6)]Man(b1-4)GlcNAc(b1-4)GlcNAc
# Summary of the method: as §1
binder,measurement,setting,value
B1,glycan array binding signal (z-score),[1],-0.134
same,glycan array binding signal (z-score),[2],0.067
same,glycan array binding signal (z-score),[3],1.13
same,glycan array binding signal (z-score),[4],-0.196
same,glycan array binding signal (z-score),[5],-0.279
same,glycan array binding signal (z-score),[6],-0.247
same,glycan array binding signal (z-score),[7],0.308
same,glycan array binding signal (z-score),[8],0.349
same,glycan array binding signal (z-score),[9],4.27
same,glycan array binding signal (z-score),[10],-0.114
same,glycan array binding signal (z-score),[11],-0.15
same,glycan array binding signal (z-score),[12],-0.196
same,glycan array binding signal (z-score),[13],-0.353
same,glycan array binding signal (z-score),[14],0.879
same,glycan array binding signal (z-score),[15],-0.191
same,glycan array binding signal (z-score),[16],-0.055
same,glycan array binding signal (z-score),Gal(b1-3)GlcNAc6S,-0.249
same,glycan array binding signal (z-score),[17],-0.05
same,glycan array binding signal (z-score),[18],-0.14
same,glycan array binding signal (z-score),[19],-0.231
same,glycan array binding signal (z-score),[20],-0.355
same,glycan array binding signal (z-score),[21],-0.271
same,glycan array binding signal (z-score),[22],0.091
same,glycan array binding signal (z-score),[23],-0.232
same,glycan array binding signal (z-score),[24],-0.213
same,glycan array binding signal (z-score),[25],-0.417
same,glycan array binding signal (z-score),[26],-0.305
same,glycan array binding signal (z-score),Gal(b1-4)Gal,0.117
same,glycan array binding signal (z-score),[27],-0.379
same,glycan array binding signal (z-score),[28],-0.325
same,glycan array binding signal (z-score),Gal(b1-4)Glc,0.233
same,glycan array binding signal (z-score),Gal(b1-4)Glc6S,-0.058
same,glycan array binding signal (z-score),Gal(b1-4)GlcNAc,-0.25
same,glycan array binding signal (z-score),[29],0.104
same,glycan array binding signal (z-score),Gal(b1-4)GlcNAc(b1-2)Man,-0.281
same,glycan array binding signal (z-score),[30],8.02
same,glycan array binding signal (z-score),[31],0.081
